Several values for one entry are separate records, joined by “and”; a condition that tells them apart may be missing. Identical values can stand only once. The list shows a part of the results. Further columns of the screen follow, without active or inactive calls.

Holding throughout (assay): Primary Screen for Target Class Profiling of Small Molecule Inhibitors of Methyltransferases
In test [1] the target is Glycine N-methyltransferase (Homo sapiens) (UniProt Q14749). The note with it: purified enzyme, MTase-Glo SAH luminescence; measured here: GNMT inhibition; at 40 µM; stronger effect = lower value. Summed up:
(§1)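 Each enzyme was reacted with SAM and its substrate, with compounds tested once at 40 uM; SAH formed was read by MTase-Glo luminescence.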

The target of test [2] is Guanidinoacetate N-methyltransferase (Homo sapiens) (UniProt Q14353). The conditions noted are these: purified enzyme, MTase-Glo SAH luminescence; measured here: GAMT inhibition; at 40 µM; stronger effect = lower value. The gist of the method: as §1
Test [3] deals with Histamine N-methyltransferase (Homo sapiens) (UniProt P50135). The conditions noted are these: purified enzyme, MTase-Glo SAH luminescence; measured here: HNMT inhibition; at 40 µM; stronger effect = lower value. The gist of the method: as §1
The target in test [4] is Nicotinamide N-methyltransferase (Homo sapiens) (UniProt P40261). The conditions noted are these: purified enzyme, MTase-Glo SAH luminescence; measured here: NNMT inhibition; at 40 µM; stronger effect = lower value. The gist of the method: as §1
Test [5] concerns the target Phenylethanolamine N-methyltransferase (Homo sapiens) (UniProt P11086). The note with it: purified enzyme, MTase-Glo SAH luminescence; measured here: PNMT inhibition; at 40 µM; stronger effect = lower value. The gist of the method: as §1
On the % scale 0 is the no-effect control and ±100 the full control effect.

In the case of `N#Cc1cc2nc(O)c(O)nc2cc1[N+](=O)[O-]`, the activity change, negative = inhibition is -9.85% in test [1]; 4.28% in test [2]; -0.555% in test [3]; -6.3% in test [4]; 4.26% in test [5].

Consider `C[C@@H](CN1CCC(Cc2ccccc2)CC1)[C@@H](O)c1ccc(O)cc1`, for which the activity change, negative = inhibition is 4.45% in test [1]; 7.73% in test [2]; 3.4% in test [3]; -6.83% in test [4]; 3.4% in test [5].

On to `CC(C)(O)CNc1ncc(-c2ccnc(Nc3ccnc(Cl)c3)n2)c(CC2CC2)n1`, for which the activity change, negative = inhibition in test [2] is -7.27%; in test [4], -47.8%; in test [5], -24.4%.

Take `Cc1cc(C[C@@H]2COC[C@@H]2NC(=O)c2ccc(Oc3ccccc3)o2)on1`: the activity change, negative = inhibition is -5.52% in test [1]; -9.04% in test [2]; -2.19% in test [3]; -8.6% in test [4]; -3.75% in test [5].

Take `CCOc1ccc(CN2CCCC(CCC(=O)Nc3ccccc3F)C2)cc1CO` (stereo unspecified): the activity change, negative = inhibition was -5.1% in test [1]; -4.89% in test [2]; -6.08% in test [3]; -8.76% in test [4]; 5.26% in test [5].

Consider `CNc1nc(Nc2cn(C(C)(C)C#N)nc2C)ncc1C(F)(F)F`, for which the activity change, negative = inhibition in test [1] was 1.42%; in test [2], 1.1% and 7.57%; in test [3], 7.81%; in test [4] it was -30.3% and -25.2%; in test [5], 4.83% and 5.86%.

As to `O=C(NCc1ccccc1)C1COC2(CCN(C(=O)c3cccs3)CC2)N1C(=O)c1ccco1` (stereo unspecified), the activity change, negative = inhibition in test [1] was -3.77%; in test [2], -3.73%; in test [3] it was -1.48%; in test [4], -3.76%; in test [5], 1.48%.

For the molecule `COC(=O)[C@@H]1C[C@H](NC(=O)c2c(Cl)cccc2Cl)CN1C`, the activity change, negative = inhibition was -5.11% in test [1]; -7.83% in test [2]; -3.57% in test [3]; -9.37% in test [4]; -5.82% in test [5].

Regarding `O=C(NC1CCCC1)c1ccc2c(=O)n(Cc3ccccc3)c3n[nH]c(=O)n3c2c1`, the activity change, negative = inhibition in test [1] is -9.66%; in test [2], -0.421%; in test [3], -5.36%; in test [4], -27.2%; in test [5] it was -15.3%.

In the case of `CC(C)CNC(=O)c1ccc2c(=O)n(C(C)C)c3nn(CC(=O)NC4CCCCC4)c(=O)n3c2c1`, the activity change, negative = inhibition in test [1] is 7.53%; in test [2], 0%; in test [3], 11.3%; in test [4], 2.68%; in test [5], 5%.

Regarding `NC1CCC(N[C@@H]2C[C@H]2c2ccccc2)CC1` (stereo partly specified), the activity change, negative = inhibition in test [1] is 5.9%; in test [2] it was 8.87%; in test [3] it was 11.7%; in test [4], -1.79%; in test [5], 8.59%.

For `CCc1ccc(N2C(=O)c3cc4occc4n3CC2(C)C(=O)NC2CCCC(C)C2C)cc1` (stereo unspecified), the activity change, negative = inhibition was -4.61% in test [1]; -1.44% in test [2]; -2.47% in test [3]; -5.39% in test [4]; -6.11% in test [5].

As for `CCc1nc(C)sc1C(=O)N1C[C@@H](CN2CCCN(C)CC2)[C@@H](CO)C1`, the activity change, negative = inhibition is -1.36% in test [1]; 2.6% in test [2]; -0.102% in test [3]; -4% in test [4]; -2.72% in test [5].

As to `COCCOCC(=O)N1CCC(N2C[C@H](OC)[C@@H]2c2cccnc2)CC1`, the activity change, negative = inhibition was -1.25% in test [1]; -3.91% in test [2]; -1.64% in test [3]; -0.88% in test [4]; -23.8% in test [5].

`Cc1noc(C)c1S(=O)(=O)N1CCCOCCNC(=O)[C@@H]2CCC[C@@H]21`: the activity change, negative = inhibition in test [1] was -1.94%; in test [2] it was -1.64%; in test [3], 0.713%; in test [4] it was -4.12%; in test [5], -8.46%.

In the case of `O[C@H]1CC[C@@H](Cc2cc(CN3CCCCC3)on2)O[C@@H]1CNCc1cccnc1`, the activity change, negative = inhibition in test [1] was -0.89%; in test [2], -0.669%; in test [3], 0.56%; in test [4] it was -2.37%; in test [5], 0.407%.

Consider `CCN(CC)Cc1cccc(/C=C/c2nc3ccc(F)cc3c(=O)n2-c2ccccc2Cl)n1`, for which the activity change, negative = inhibition is -17.4% in test [1]; -0.869% in test [2]; -12.5% in test [3]; -36.6% in test [4]; 1.56% in test [5].

For `Nc1nc(-c2ccc(Cl)c(Cl)c2)c(-c2ccncc2)s1`, the activity change, negative = inhibition in test [2] is 3.65%; in test [4], -20.1%; in test [5] it was -10.9%.

Consider `Cn1c(=O)n(C)c2cc(S(=O)(=O)N3CCOCC3)c(Cl)cc21`, for which the activity change, negative = inhibition is 0.025% in test [1]; 6.1% in test [2]; 3.9% in test [3]; 8.81% in test [4]; -1.83% in test [5].

Turning to `N[C@@H](CS(=O)O)C(=O)O`, the activity change, negative = inhibition in test [1] is 1.34%; in test [2], 10.4%; in test [3], 7.08%; in test [4], -3.55%; in test [5], 5.59%.

Regarding `COc1cccc(Cn2nc3n(Cc4ccc(C)cc4)c(=O)c4ccccc4n3c2=O)c1`, the activity change, negative = inhibition is 2.12% in test [1]; 0% in test [2]; 6.08% in test [3]; -0.188% in test [4]; -0.418% in test [5].

For `COc1cccc(CN2Cc3nc(-c4cnn(C)c4)ccc3OCC2=O)c1`, the activity change, negative = inhibition was -11.3% in test [1]; -0.176% in test [2]; -5.77% in test [3]; -7.91% in test [4]; -14.9% in test [5].

On to `CCCCN1C(=O)c2cc(C(=O)NC3CCCC3)nn2CC1(C)C(=O)NC1CCCC1` (stereo unspecified), for which the activity change, negative = inhibition in test [1] was 7.68%; in test [2] it was 0%; in test [3], 9.51%; in test [4] it was 6.79%; in test [5], 5.82%.

For the molecule `COC1OC(O)C2(CCC3(O2)C(C)CC2OC(=O)C4(C)CCCC3(C)C24)C1O` (stereo unspecified), the activity change, negative = inhibition in test [1] was 0%; in test [2] it was 7.48%; in test [3], 9.15%; in test [4] it was -6.09%; in test [5] it was 2.45%.

Consider `COCCCNC(=O)c1cc2n(n1)CC(C)(C(=O)NC1CCCCC1)N(C)C2=O` (stereo unspecified), for which the activity change, negative = inhibition in test [1] is -0.239%; in test [2], -0.046%; in test [3], -0.364%; in test [4], -2.24%; in test [5] it was -2.62%.

In the case of `COc1ccc(C(=O)COC(=O)C(Cc2c[nH]c3ccccc23)NC(=O)c2ccc(Br)cc2)cc1` (stereo unspecified), the activity change, negative = inhibition in test [1] is 0.321%; in test [2] it was 3.7%; in test [3], 3.97%; in test [4], -2.24%; in test [5], -3.23%.

Regarding `CCCn1c(=O)c2ccc(C(=O)NCC(C)C)cc2n2c(=O)n(Cc3cccc(Cl)c3)nc12`, the activity change, negative = inhibition is 4.28% in test [1]; 0.805% in test [2]; 9.24% in test [3]; -2.64% in test [4]; 6.1% in test [5].

In the case of `CCCNC(=O)N1Cc2c(sc3c2CCCC3)-n2cccc2C1c1cccc(C)c1` (stereo unspecified), the activity change, negative = inhibition was -4.88% in test [1]; 0% in test [2]; 3.24% in test [3]; -11.9% in test [4]; -2.59% in test [5].

`CCCNS(=O)(=O)c1ccc2c(c1)n(C)c(=O)n2C`: the activity change, negative = inhibition was determined as 6.8% in test [1]; 0% in test [2]; 5.77% in test [3]; 0.007% in test [4]; 0.189% in test [5].

On to `C[C@H]1CC[C@@]2(OC1)O[C@H]1CC3C4CC[C@H]5C[C@@H](O)CC[C@]5(C)C4=CC(=O)[C@]3(C)[C@H]1[C@@H]2C` (stereo partly specified), for which the activity change, negative = inhibition was -1.7% in test [1]; 0.362% in test [2]; 5.11% in test [3]; -9.11% in test [4]; -9.34% in test [5].

For the origin of these results see PubChem BioAssay AID1745853 (National Center for Advancing Translational Sciences (NCATS), 2022).
